Hit rate of the full screen: of about 310,000 compounds, about 2,200 (0.71%) showed an effect of 50% or more. The effect is printed as a negative number. The list shows a part of the results.
What follows are compounds tested against human ether-à-go-go-related gene (hERG) potassium channel (human, UniProt Q12809) (assay: primary screen, population patch clamp on CHO cells stably expressing hERG).
Sequence of human ether-à-go-go-related gene (hERG) potassium channel (Q12809 whole entry, looked up): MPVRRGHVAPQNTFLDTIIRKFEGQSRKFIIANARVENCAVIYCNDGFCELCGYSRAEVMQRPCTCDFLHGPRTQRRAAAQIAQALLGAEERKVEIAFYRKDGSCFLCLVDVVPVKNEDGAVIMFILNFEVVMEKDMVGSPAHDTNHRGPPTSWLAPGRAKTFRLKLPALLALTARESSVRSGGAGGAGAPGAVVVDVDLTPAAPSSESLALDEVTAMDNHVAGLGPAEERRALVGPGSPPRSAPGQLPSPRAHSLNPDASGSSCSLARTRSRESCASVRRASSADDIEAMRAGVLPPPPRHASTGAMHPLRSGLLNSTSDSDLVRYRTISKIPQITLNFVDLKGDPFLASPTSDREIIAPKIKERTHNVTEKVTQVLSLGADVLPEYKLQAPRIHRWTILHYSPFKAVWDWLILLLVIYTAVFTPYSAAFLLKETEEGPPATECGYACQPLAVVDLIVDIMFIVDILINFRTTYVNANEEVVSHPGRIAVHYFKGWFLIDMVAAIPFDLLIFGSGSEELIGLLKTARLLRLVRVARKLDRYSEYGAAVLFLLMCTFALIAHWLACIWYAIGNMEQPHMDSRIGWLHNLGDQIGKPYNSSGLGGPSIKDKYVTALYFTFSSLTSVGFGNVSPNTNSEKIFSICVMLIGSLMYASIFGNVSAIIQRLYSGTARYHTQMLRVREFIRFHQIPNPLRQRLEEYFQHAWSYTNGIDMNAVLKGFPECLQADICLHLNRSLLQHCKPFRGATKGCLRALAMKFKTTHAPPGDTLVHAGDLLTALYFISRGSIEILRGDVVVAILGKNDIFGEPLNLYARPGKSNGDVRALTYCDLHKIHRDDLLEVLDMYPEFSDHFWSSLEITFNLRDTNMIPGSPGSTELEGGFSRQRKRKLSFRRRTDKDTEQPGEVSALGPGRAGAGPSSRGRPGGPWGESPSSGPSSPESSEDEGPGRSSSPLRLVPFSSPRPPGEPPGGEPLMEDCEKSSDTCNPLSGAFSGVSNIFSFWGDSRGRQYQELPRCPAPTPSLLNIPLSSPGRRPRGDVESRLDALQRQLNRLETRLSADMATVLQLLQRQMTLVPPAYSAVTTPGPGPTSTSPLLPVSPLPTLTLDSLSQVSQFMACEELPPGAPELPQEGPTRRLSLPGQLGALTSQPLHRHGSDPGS

SMILES	hERG current change (%, negative = inhibition) at 1uM
COc1ccccc1-n1nnnc1SCC(=O)N1CCCC1=O	-4.23%
CC(C)(O)C#Cc1ccc(C(=O)N2CCCC(CNS(=O)(=O)c3cccs3)C2)o1 (stereo not drawn)	6.44%
CN(Cc1ccccc1)C(=O)CCC1CCN(S(=O)(=O)N(C)C)CC1	6.65%
COC(=O)c1c(NC(C)=O)csc1C	17.3%
O=C(O)C(=O)O.Oc1ccccc1N1CCN(CC(O)COC2CCCc3ccccc32)CC1 (stereo not drawn)	3.51%
O=S(=O)(NCCc1cn2ccccc2n1)c1cccs1	1.39%
COCCCNC(=O)c1cc(C)nc2ccc(F)cc12	-1.73%
O=c1c2c(nc3c(-c4cccc5ccccc45)c[nH]n13)CCC2	11.8%
CCc1cccc(C)c1NC(=O)c1ccc2nc(N3CCOCC3)sc2c1	7.49%
CCCOc1ccc(-c2nc(SCc3ccccc3)[nH]c(=O)c2C#N)cc1OC	8.97%
Cc1c(Cl)cccc1NC(=S)NC(=O)c1cncc(Br)c1	19.9%
O=S(=O)(NCC1CN(S(=O)(=O)c2c(F)cccc2F)C1)c1ccc2c(c1)OCCO2	15.5%
OCCOCCNc1ncnc2sc(-c3ccccc3)cc12	-7.21%
CCOC(=O)C1CCN(C(=O)COC(=O)CSc2ccc([N+](=O)[O-])cc2)CC1	3.96%
Cc1cc(NC(=O)c2noc3c2CCCCC3)nn1Cc1ccc(Cl)cc1	3.3%
Cc1nnc(-c2cnn(C)c2N)n1Cc1ccc(Cl)cc1	14.8%
FC(F)(F)c1cnc(N/N=C/c2ccncc2)c(Cl)c1	0.979%
CN(C)/C=C(\C#N)C(=O)Nc1ccc(F)c(Cl)c1	10.3%
CC1=NN(c2ccccc2)C(=O)/C1=C/c1ccc(-c2ccc(C)c(C(=O)O)c2)o1	12.2%
CCOc1ccc(OCC)c(NC(=O)c2ccc(CNc3c(N4CCCC4)c(=O)c3=O)cc2)c1	9.66%
Cc1cccc(N2C(=O)CC(N3CCN(c4ccccc4)CC3)C2=O)c1 (stereo not drawn)	11.8%
COc1ccc(Br)cc1CNC(=O)CCCc1cn(C)c2ccccc12	18.6%

SMILES	hERG current change (%, negative = inhibition) at 1uM
CCc1nn(C(C)C(=O)N2CCN(c3ccccc3)CC2)c(=O)c2cc3occc3n12 (stereo not drawn)	-4.37%
CCCCOc1ccc(S(=O)(=O)Nc2cc(OC)ccc2OC)cc1	15.7%
O=C(OC1CCN(c2ncc(C(F)(F)F)cc2Cl)CC1)c1cccc(C(F)(F)F)c1	16.6%
COc1ccc(OCC(=O)N/N=C/C=C/c2ccccc2)cc1	-4.98%
Cc1cc(NC(=O)Cn2nnc3sc4c(c3c2=O)CCC(C(C)(C)C)C4)no1 (stereo not drawn)	4.19%
O=Cc1ccc(OCc2cccc(C(F)(F)F)c2)cc1O	14.5%
O=C(O)c1ccc(CNC(=O)c2ccc3c(c2)C(=O)N(Cc2cccnc2)C3=O)cc1	5.67%
COC(=O)c1ccc(NC(=O)Cn2nc(C(=O)Nc3ccc(C)cc3)ccc2=O)cc1	10.8%
CC(Sc1nnnn1C1CCCC1)C(=O)Nc1cccc(S(=O)(=O)N2CCOCC2)c1 (stereo not drawn)	4.97%
COc1ccc(-c2noc(CNC(=O)C(C)Oc3ccccc3)n2)cc1 (stereo not drawn)	-1.42%
Cc1ccc(C23CC4CC(CC(NC(=O)N5CCN(C)CC5)(C4)C2)C3)cc1	5.68%
CO/N=C(/CS(=O)(=O)c1ccc(Br)cc1)c1ccc(OC)cc1	7.67%
COc1ccc2nc(NC(=O)CSCC(=O)Nc3cc(C)on3)sc2c1	10.9%
CC(C)C(C)(C#N)NC(=O)CSc1nc2scc(-c3ccccc3)c2c(=O)[nH]1 (stereo not drawn)	8.72%
Nn1c(SCC(=O)Nc2ccc3c(c2)OCO3)nnc1-c1cccc(Cl)c1	-9.11%
O=C(CCc1nnc2ccc(NCc3ccccc3Cl)nn12)NC1CCCC1	12.4%
CCC(C)NC(=O)c1ccccc1SC (stereo not drawn)	7.27%
COc1ccc(-n2cc(CNCCN3CCOC3=O)c(-c3ccccc3Cl)n2)cc1	4.69%
O=C1c2ccccc2C(=O)N1CCC(O)C[N+](=O)[O-] (stereo not drawn)	17.3%
Cn1c(=O)c2c(nc(NCCc3ccccc3)n2CC(=O)NCCc2ccccc2)n(C)c1=O	12.5%
COc1cccc(NC(=O)CNC(=O)N2CC(=O)Nc3ccccc32)c1	6.61%
COc1cccc(CNC(=O)CCCn2c(=S)[nH]c3cc4c(cc3c2=O)OCO4)c1	12.8%

SMILES	hERG current change (%, negative = inhibition) at 1uM
COc1ccc(C(=O)N2CCCC(Nc3ccc(F)cc3)C2)c(OC)c1 (stereo not drawn)	16.4%
CCN1C(=O)c2cccc3c(NC(=O)c4ccc(OC)c(OC)c4)ccc1c23	-22.3%
O=C(NCC1CCCO1)NC1CCCCC1 (stereo not drawn)	16.5%
CC(=O)Nc1ccc(-c2nc3ccccc3o2)cc1	-2.43%
Cc1cccn2cc(-c3cccc(S(=O)(=O)N4CCCCC4)c3)nc12	6.48%
O=C(CCN1C(=O)c2ccccc2C1=O)NCc1ccccc1	8.97%
CC(C)c1ccc2c(c1)C(N1CCNCC1)Cc1ccc(F)cc1S2.O.O=C(O)/C=C\C(=O)O (stereo not drawn)	13.7%
O=C(CCOc1ccccc1)Nc1ccc([N+](=O)[O-])cc1	-18.3%
CC(=O)c1cccc(OCC(=O)N(Cc2ccco2)c2c(N)n(Cc3ccccc3)c(=O)[nH]c2=O)c1	2.85%
COc1cc(OC)cc(C(=O)NNC(=O)C2CSC3(C)CCC(=O)N23)c1 (stereo not drawn)	14.3%
CCCCCCC(=O)N/N=C/c1c(O)n(C(C)CC)c(=S)[nH]c1=O (stereo not drawn)	9.66%
Cc1cc(C)nc(SC2CCCCC2NS(=O)(=O)c2ccc(Cl)cc2)n1 (stereo not drawn)	9.14%
O=C(Oc1ccc2c(-c3ccccc3)cc(=O)oc2c1)C1CCCCC1	10.3%
Cc1noc(C)c1N=Nc1ccccc1C(=O)O	10.9%
CC[C@H](C)[C@H](NC(=O)[C@H](Cc1ccc(O)cc1)NC(=O)[C@@H](N)C(C)C)C(=O)N[C@@H](Cc1cnc[nH]1)C(=O)N1CCC[C@H]1C(=O)N[C@@H](Cc1ccccc1)C(=O)O	6.63%
CCO[C@@H]1OC(C(=O)N2CCOCC2)=C[C@H](C2CCCCC2)[C@H]1CCCO	15.9%
CCOC(=O)c1csc(NC(=O)CSc2nnnn2-c2ccc(OC)c(OC)c2)n1	7.09%
CC(=O)c1ccc(N2CCN(C(=O)/C=C/c3ccc(S(=O)(=O)N4CCOCC4)cc3)CC2)cc1	2.42%
O=c1[nH]c(=O)n(-c2cc(Br)c(O)c(Br)c2)cc1Br	11.2%
Cc1ccccc1C(=O)Nc1nnc(-c2ccc(F)cc2)o1	0.734%
CSCCC(NS(=O)(=O)c1ccc(C)cc1)C(=O)NCC(C)(C)N1CCOCC1 (stereo not drawn)	4.69%
CCc1noc(C)c1C(=O)NNC(=O)COc1cc(C)ccc1C	-10.1%

SMILES	hERG current change (%, negative = inhibition) at 1uM
Cc1cccc(-c2nnc3sc(-c4ccccc4)nn23)c1	-7.56%
CC(=O)OCC12COC3c4ccccc4OC(C)(CC1C)C3C2C (stereo not drawn)	5.51%
COc1ccc(Br)cc1S(=O)(=O)N1CCOCC1	0.9%
CCN(CC)C(=O)c1ccc(NC(=O)Cn2nc(C)c3ccccc3c2=O)cc1	0.871%
COc1ccc2c(c1)[nH]c1c(=O)n(Cc3ccccn3)cnc12	5.19%
Cc1sc2ncnc(N[C@@H](CCC(=O)O)C(=O)O)c2c1C	10.8%
COC(=O)c1sc(NC(=O)c2c(-c3ccccc3)noc2C)nc1C	16.4%
COc1ccc(C)cc1NC(=O)C(CCS(C)(=O)=O)NC(C)=O (stereo not drawn)	15.4%
COc1cc(N)c(Cl)cc1C(=O)OCC(=O)N1CCCCCC1	5.85%
CNC(=O)NC(=O)CSc1nc2sccc2c(=O)n1-c1ccccc1	13.5%
CCc1ccccc1OCCOc1ccc(C)cc1OC	10.7%
CCCOc1ccc(CNC(=S)N/N=C/c2ccc([N+](=O)[O-])cc2)cc1	7.65%
CC(=O)n1cc([C@H]2C=C(C(=O)O)O[C@@H](OCCCCO)C2)c2ccccc21	5.32%
Cc1ccc(S(=O)(=O)NCCc2cc3ccc(C)c(C)c3[nH]c2=O)cc1	11.4%
C/C(=N\NC(=S)Nc1ccc(C(C)C)cc1)c1ccc2c(c1)OCO2	17.6%
CC12CCC(=O)N1C(C(=O)NCc1ccc(Cl)cc1Cl)CS2 (stereo not drawn)	10.1%
Cc1ccc(-n2nc(C)c3c(C)c(CCC(=O)NCCCOC(C)C)c(C)nc32)cc1	2.46%
O=C(CCc1nc2ccccc2c(=O)[nH]1)Nc1cc(C(F)(F)F)ccc1N1CCCC1	6.43%
Cc1cccc(OCCC(=O)NCC(=O)Nc2cccc(C)c2C)c1	16.5%
COC(=O)c1ccc(CSc2nncn2N)cc1	14.6%
FC(F)(F)c1cc(-c2ccccc2)nc(-n2cncn2)n1	-14.3%

Source: publication PMC4336329 (PLoS ONE, 2015)
